Assay results taken from the supplement of paper PMC6206098.
± gives the uncertainty stated by the source. Shown are siRNA guide strands that differ only in the seed, positions 2 to 7.

How the values were obtained:
[1] = test system: H460; assay: cell viability relative to lipid-only control; higher = less toxic; conditions: concentration: 10 nM; 96 h; Homo sapiens
[2] = test system: HeyA8; assay: as above; conditions: concentration: 10 nM; 96 h; Homo sapiens
[3] = test system: M565; assay: as above; conditions: concentration: 10 nM; 96 h; Mus musculus
[4] = test system: 3LL; assay: cell viability relative to siNT1 control; HeyA8 human ovarian and H460 human lung cancer; M565 mouse liver and 3LL mouse lung cancer; siNT1 is a non-toxic control siRNA; higher = less toxic; conditions: concentration: 10 nM; 96 h; Mus musculus;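 also: Luminescence-based viability of cells reverse transfected in 384-well plates with lipid-complexed siRNAs built on a non-toxic 19mer backbone whose passenger strand carries 2′-O-methyl groups at positions 1 and 2, triplicates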
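For cell viability relative to lipid-only control in this document: reverse lipid transfection in 384-well plates, in triplicate, of duplexes on a non-toxic 19mer backbone with passenger strand 2′-O-methylated at positions 1 and 2, luminescence viability read-out.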

Sequence | cell viability [1] [%] | cell viability [2] [%] | cell viability [3] [%] | cell viability [4] [%]
UUACCGCACAUGUAAACCAAA | 51.5 ± 2.9 | 81 ± 3.8 | 18.8 ± 6 | 61.8 ± 3.9
UUACCGGACAUGUAAACCAAA | 73.6 ± 14 | 89.9 ± 3.5 | 74.1 ± 16 | 91.1 ± 14
UUACCGUACAUGUAAACCAAA | 54.9 ± 7.5 | 75.8 ± 2.7 | 34.8 ± 5.3 | 73.4 ± 10
UUACCUAACAUGUAAACCAAA | 76.2 ± 10 | 103 ± 4.4 | 95.6 ± 14 | 99.7 ± 10
UUACCUCACAUGUAAACCAAA | 52.6 ± 5.3 | 70.2 ± 1.6 | 34.6 ± 8.3 | 20.2 ± 4.5
UUACCUGACAUGUAAACCAAA | 69.6 ± 10 | 91.3 ± 6.1 | 81.8 ± 4.1 | 83.2 ± 10
UUACCUUACAUGUAAACCAAA | 65.6 ± 5.4 | 61.2 ± 3.6 | 58.1 ± 12 | 59.2 ± 11
UUACGAAACAUGUAAACCAAA | 97.9 ± 16 | 98.9 ± 5.1 | 103 ± 14 | 105 ± 15
UUACGACACAUGUAAACCAAA | 56.5 ± 7.6 | 69.8 ± 1.8 | 85.9 ± 13 | 87.6 ± 8.6
UUACGAGACAUGUAAACCAAA | 92.3 ± 10 | 96 ± 6.7 | 71.1 ± 20 | 105 ± 15
UUACGAUACAUGUAAACCAAA | 79.5 ± 12 | 75.9 ± 8.4 | 110 ± 6.2 | 98.1 ± 7.4
UUACGCAACAUGUAAACCAAA | 74.9 ± 7.7 | 98.8 ± 7.5 | 107 ± 3.1 | 96.6 ± 3.9
UUACGCCACAUGUAAACCAAA | 70.9 ± 13 | 72.4 ± 1.6 | 29.3 ± 8.7 | 46.8 ± 7.1
UUACGCGACAUGUAAACCAAA | 93.2 ± 14 | 104.3 ± 1 | 88.5 ± 3.4 | 88.6 ± 4.7
UUACGCUACAUGUAAACCAAA | 74.7 ± 7 | 97.1 ± 3 | 85.4 ± 20 | 41.6 ± 6.7
UUACGGAACAUGUAAACCAAA | 96.2 ± 10 | 103 ± 4.2 | 111 ± 33 | 82.1 ± 3.7
UUACGGCACAUGUAAACCAAA | 40.8 ± 3.6 | 33.9 ± 5 | 42 ± 6.7 | 10.7 ± 2.6
UUACGGGACAUGUAAACCAAA | 58.3 ± 4.9 | 21.7 ± 1.7 | 61.5 ± 9.8 | 59.2 ± 13
UUACGGUACAUGUAAACCAAA | 46.7 ± 4.8 | 73.7 ± 7.1 | 101 ± 22 | 68.2 ± 7.4
UUACGUAACAUGUAAACCAAA | 99.6 ± 11 | 97.4 ± 5.3 | 74.5 ± 10 | 102 ± 8.9

Sequence | cell viability [1] [%] | cell viability [2] [%] | cell viability [3] [%] | cell viability [4] [%]
UUACGUCACAUGUAAACCAAA | 106 ± 13 | 85.2 ± 6.3 | 48.1 ± 12 | 104 ± 11
UUACGUGACAUGUAAACCAAA | 108 ± 6.3 | 105 ± 1.9 | 117 ± 12 | 108 ± 7
UUACGUUACAUGUAAACCAAA | 108 ± 14 | 97.2 ± 5.5 | 62.4 ± 2.5 | 108 ± 8.8
UUACUAAACAUGUAAACCAAA | 77 ± 6.1 | 95.6 ± 5.5 | 73.8 ± 7 | 106 ± 7.6
UUACUACACAUGUAAACCAAA | 67 ± 7.5 | 75.4 ± 7.2 | 63.4 ± 16 | 67.7 ± 7.1
UUACUAGACAUGUAAACCAAA | 69.4 ± 2.1 | 82.5 ± 2.9 | 64 ± 2.9 | 87.8 ± 7.1
UUACUAUACAUGUAAACCAAA | 70.2 ± 0.83 | 79 ± 3.4 | 70.6 ± 5.3 | 85.8 ± 5
UUACUCAACAUGUAAACCAAA | 71.9 ± 2.7 | 59.6 ± 1.4 | 31.5 ± 2.4 | 81.7 ± 5.8
UUACUCCACAUGUAAACCAAA | 18.4 ± 2.7 | 20 ± 0.59 | 15 ± 3.1 | 7.24 ± 3.9
UUACUCGACAUGUAAACCAAA | 88.3 ± 3.3 | 82 ± 7 | 35.4 ± 4.7 | 85.1 ± 8
UUACUCUACAUGUAAACCAAA | 39.8 ± 1.5 | 40.8 ± 3.9 | 29.8 ± 3.1 | 32 ± 1.9
UUACUGAACAUGUAAACCAAA | 79 ± 6.5 | 102 ± 8.8 | 68 ± 13 | 97.9 ± 13
UUACUGCACAUGUAAACCAAA | 82.9 ± 11 | 80.1 ± 2.3 | 35.4 ± 8.5 | 35.5 ± 3.1
UUACUGGACAUGUAAACCAAA | 51 ± 3.2 | 49.8 ± 4.7 | 22.5 ± 12 | 29.3 ± 3
UUACUGUACAUGUAAACCAAA | 61.8 ± 4.9 | 94.9 ± 5.6 | 39.7 ± 11 | 59.6 ± 7.5
UUACUUAACAUGUAAACCAAA | 73 ± 9 | 89.5 ± 3.2 | 75 ± 8.5 | 95.9 ± 8.5
UUACUUCACAUGUAAACCAAA | 55.7 ± 5.6 | 63.5 ± 5.6 | 50.3 ± 3.3 | 29.4 ± 3
UUACUUGACAUGUAAACCAAA | 67.3 ± 7.5 | 92.8 ± 1.3 | 82.9 ± 24 | 84.8 ± 2.9
UUACUUUACAUGUAAACCAAA | 69.9 ± 5.1 | 71.45 ± 0.39 | 73.3 ± 14 | 91.7 ± 4.9
UUAGAAAACAUGUAAACCAAA | 88.1 ± 30 | 101 ± 7.1 | 86.3 ± 8.4 | 100 ± 4.3

Sequence | cell viability [1] [%] | cell viability [2] [%] | cell viability [3] [%] | cell viability [4] [%]
UUAGAACACAUGUAAACCAAA | 107 ± 10 | 90 ± 4.5 | 122 ± 5.7 | 93 ± 16
UUAGAAGACAUGUAAACCAAA | 107 ± 10 | 95.7 ± 9.6 | 94.5 ± 14 | 92.2 ± 8
UUAGAAUACAUGUAAACCAAA | 70.6 ± 8.6 | 81.3 ± 4.8 | 109 ± 7.1 | 70.5 ± 3.4
UUAGACAACAUGUAAACCAAA | 86.2 ± 29 | 104 ± 6.1 | 76 ± 16 | 93.8 ± 10
UUAGACCACAUGUAAACCAAA | 37.3 ± 11 | 80.2 ± 4.7 | 78.5 ± 21 | 45.7 ± 11
UUAGACGACAUGUAAACCAAA | 100 ± 14 | 105 ± 9.8 | 98.6 ± 21 | 108 ± 15
UUAGACUACAUGUAAACCAAA | 85.6 ± 16 | 99 ± 5.8 | 91.4 ± 16 | 91.1 ± 7.9
UUAGAGAACAUGUAAACCAAA | 71.3 ± 7.8 | 85.9 ± 13 | 103 ± 8 | 55.6 ± 3
UUAGAGCACAUGUAAACCAAA | 76.7 ± 6.1 | 75.2 ± 4.8 | 90.1 ± 10 | 11.2 ± 4.9
UUAGAGGACAUGUAAACCAAA | 51 ± 1.4 | 51.7 ± 5.2 | 45.3 ± 13 | 30.9 ± 3.1
UUAGAGUACAUGUAAACCAAA | 61.2 ± 10 | 72.9 ± 2.6 | 70 ± 18 | 43.7 ± 2.2
UUAGAUAACAUGUAAACCAAA | 92.2 ± 9.4 | 95.5 ± 6.2 | 102 ± 12 | 98.5 ± 15
UUAGAUCACAUGUAAACCAAA | 66.8 ± 4 | 65 ± 7 | 59.1 ± 15 | 61.4 ± 6.9
UUAGAUGACAUGUAAACCAAA | 84.1 ± 7.2 | 86.3 ± 6.1 | 63.9 ± 4.7 | 87.1 ± 10
UUAGAUUACAUGUAAACCAAA | 92.9 ± 11 | 81.4 ± 2.9 | 73.5 ± 13 | 66.4 ± 12
UUAGCAAACAUGUAAACCAAA | 80.6 ± 11 | 87 ± 4.9 | 71.1 ± 16 | 88.2 ± 16
UUAGCACACAUGUAAACCAAA | 55.1 ± 5.1 | 59.7 ± 3.9 | 13.1 ± 3.1 | 15.6 ± 2.1
UUAGCAGACAUGUAAACCAAA | 71.5 ± 6.6 | 83.4 ± 6.5 | 28.5 ± 4.4 | 46.5 ± 8.7
UUAGCAUACAUGUAAACCAAA | 59.7 ± 4.7 | 73.2 ± 1.1 | 29.7 ± 2.6 | 42.3 ± 5.9
UUAGCCAACAUGUAAACCAAA | 57 ± 6.1 | 63.3 ± 6.9 | 72.9 ± 14 | 56.7 ± 2.9
